The whole screen tested about 220,000 compounds, of which about 5,700 (2.6%) were called active. The inconclusive results got no clear call from the source; some entries with a clear call stand among them for comparison. Calls come from the whole dose curve; as a rule, active = well fitted inhibition curve with a large enough effect; inconclusive = small, poorly fitted or top-dose-only effect; inactive = no such curve, though single readings can be large or run the other way. A potency beside an inconclusive call is a rough fit, not a confirmed value.
target: Lysine-specific demethylase 5B (Homo sapiens) (UniProt Q9UGL1); assay: Primary screen for KDM5B Histone Demethylases FDH-coupled qHTS; details: FDH-coupled NADH fluorescence (FDH is formaldehyde dehydrogenase); activity change, negative = inhibition: at 57.7 µM (top of the series) unless noted; note: nearly all actives have a fitted effect of over 70% in size; for activity change, negative = inhibition: 0% is about no effect
UniProt Q9UGL1, sequence (Q9UGL1 whole entry, looked up): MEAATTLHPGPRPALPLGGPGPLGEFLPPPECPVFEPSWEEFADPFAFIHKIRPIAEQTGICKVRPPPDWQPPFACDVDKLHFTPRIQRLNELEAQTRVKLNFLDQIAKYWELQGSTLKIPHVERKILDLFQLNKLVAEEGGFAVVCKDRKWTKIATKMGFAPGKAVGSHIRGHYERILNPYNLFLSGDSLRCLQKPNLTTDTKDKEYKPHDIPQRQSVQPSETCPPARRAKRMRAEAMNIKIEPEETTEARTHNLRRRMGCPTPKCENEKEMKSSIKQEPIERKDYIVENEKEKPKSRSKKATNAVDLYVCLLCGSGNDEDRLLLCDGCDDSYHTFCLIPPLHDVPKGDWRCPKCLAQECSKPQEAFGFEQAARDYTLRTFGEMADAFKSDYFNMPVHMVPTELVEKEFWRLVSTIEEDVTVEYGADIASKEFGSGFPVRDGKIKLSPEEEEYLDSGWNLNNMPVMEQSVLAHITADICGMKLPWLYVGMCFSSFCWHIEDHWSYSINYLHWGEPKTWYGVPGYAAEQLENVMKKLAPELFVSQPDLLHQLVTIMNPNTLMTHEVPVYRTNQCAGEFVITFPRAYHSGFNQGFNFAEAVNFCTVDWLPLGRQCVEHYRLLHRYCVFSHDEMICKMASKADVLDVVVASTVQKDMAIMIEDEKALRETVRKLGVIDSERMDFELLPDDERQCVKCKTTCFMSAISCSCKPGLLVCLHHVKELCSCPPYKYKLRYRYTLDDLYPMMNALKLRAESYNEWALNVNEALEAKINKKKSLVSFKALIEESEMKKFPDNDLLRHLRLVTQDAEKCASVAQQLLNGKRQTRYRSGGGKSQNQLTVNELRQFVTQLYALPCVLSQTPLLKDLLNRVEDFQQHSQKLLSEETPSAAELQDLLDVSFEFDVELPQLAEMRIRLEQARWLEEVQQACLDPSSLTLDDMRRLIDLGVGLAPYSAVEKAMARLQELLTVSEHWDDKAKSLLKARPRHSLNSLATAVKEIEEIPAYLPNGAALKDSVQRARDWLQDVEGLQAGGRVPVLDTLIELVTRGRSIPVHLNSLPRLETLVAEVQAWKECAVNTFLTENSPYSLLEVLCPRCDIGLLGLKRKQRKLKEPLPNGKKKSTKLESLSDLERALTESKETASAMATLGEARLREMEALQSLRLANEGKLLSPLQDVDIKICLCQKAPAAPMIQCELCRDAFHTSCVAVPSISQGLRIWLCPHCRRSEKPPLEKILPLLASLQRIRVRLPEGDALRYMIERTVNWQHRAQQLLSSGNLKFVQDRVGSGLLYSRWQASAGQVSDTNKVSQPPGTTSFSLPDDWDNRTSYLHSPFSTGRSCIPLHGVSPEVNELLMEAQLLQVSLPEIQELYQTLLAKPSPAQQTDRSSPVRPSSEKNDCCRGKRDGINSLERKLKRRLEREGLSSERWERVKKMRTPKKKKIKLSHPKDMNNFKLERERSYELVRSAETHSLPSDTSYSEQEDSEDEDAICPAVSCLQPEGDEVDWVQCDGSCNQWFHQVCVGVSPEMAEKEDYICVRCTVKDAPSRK
How it was run: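 Here, H3K4me3 peptide (12.5 µM in substrate mix) is demethylated by KDM5BΔAP, 200 nM final, after 10 min compound exposure. Formaldehyde product is coupled through FDH (0.25 U/mL in mix) to NADH fluorescence; 30-min ΔRFU feeds dose-response curves.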
Potency is the fitted concentration of half-maximal effect; tags give direction and shape of the fitted curve.

| Structure (SMILES) | Potency | activity change, negative = inhibition |
| --- | --- | --- |
| CCCn1c(-c2ccc(OC)cc2)nc2c(=O)n(C)c(=O)[nH]c21 | inconclusive: 22.4 µM [inhibitor, partial curve, poor fit] | – |
| CS(=O)(=O)c1cccc(OC(=O)/C=C/c2cccc(OCc3ccccc3)c2)c1 | inconclusive: 39.8 µM [inhibitor, single point] | – |
| COC(=O)c1cc2oc(C)cc2n1Cc1cc(C)ccc1C | inconclusive: 28.2 µM [inhibitor, partial curve, poor fit] | – |
| Cc1cccc(NC(=O)CC2Nc3cccc4cccc(c34)NC2=O)c1 (configuration not stated) | inconclusive: 28.2 µM [inhibitor, partial curve, poor fit] | – |
| COc1ccccc1N(CC(=O)NC1CCCC1)C(=O)C1(C)CC(=O)N=C2C=CC(C)=CN21 (configuration not stated) | inconclusive: 31.6 µM [inhibitor, partial curve, poor fit] | – |
| CCc1ccc(NC(=O)Cn2ccn(-c3ccc(OC)cc3)c(=O)c2=O)cc1 | inconclusive: 0.891 µM [inhibitor, partial curve, poor fit] | – |
| Cc1nc(C)c(C(=O)N[C@@H]2CN(Cc3ccncc3)C[C@H]2CN(C)C)s1 | inconclusive: 31.6 µM [inhibitor, partial curve, poor fit] | – |
| CCCCCCCCCNC(=O)c1nccnc1N | inconclusive: 28.2 µM [inhibitor, partial curve, poor fit] | – |
| Cn1c(SCC(N)=O)nnc1-c1cc2c(s1)CCC(C(C)(C)C)C2 (configuration not stated) | inconclusive: 25.1 µM [inhibitor, single point] | – |
| COc1ccc(-c2cc3c(cn2)CN(CCc2ccccc2)CCN3)cc1OC | active: 35.5 µM | – |
| COc1ccccc1-c1onc(C)c1C(=O)NCCc1cccc(Cl)c1 | inconclusive: 15.8 µM [inhibitor, partial curve, poor fit] | – |
| Cc1nc(NC(=O)C(C)Sc2nnc(-c3ccccc3F)n2CC(C)C)sc1C (configuration not stated) | inconclusive: 22.4 µM [inhibitor, single point] | – |
| Cc1ccc(CNC(=O)c2ccc3c(c2)CCN3S(=O)(=O)c2ccccc2)cc1 | inconclusive: 25.1 µM [inhibitor, single point] | – |
| CCN1CCC(N(Cc2ccc3c(c2)OCO3)C(=O)Nc2ccc(OC)cc2OC)CC1 | – | inactive: -4.3% |
| Cc1cc(C)nc(N/N=C/C2=C(O)CC(c3ccccc3)CC2=O)n1 (configuration not stated) | inconclusive: 8.91 µM [inhibitor, partial curve, poor fit] | – |
| O=[S+]1([O-])CCN(Cc2ccc(-c3cnc4c(OCc5ccccc5)nccn34)cc2)CC1 | active: 22.4 µM | – |
| CCOc1ccc(NC(=O)NC2(C(F)(F)F)Oc3ccccc3O2)cc1 | inconclusive: 10 µM [inhibitor, partial curve, poor fit] | – |
| COc1cccc(NC(=O)c2ccc3c(c2)NC(C)(COc2cccnc2)CO3)c1 (configuration not stated) | inconclusive: 28.2 µM [inhibitor, partial curve, poor fit] | – |
| CCC1=NOC(Cn2c(=O)n(CCc3ccccn3)c3ncc(C(=O)O)cc32)C1 (configuration not stated) | inconclusive: 10 µM [inhibitor, partial curve, poor fit] | – |
| CCOC(=O)COc1ccc(/C=C(\C#N)c2nc3ccc(C)cc3[nH]2)cc1OC | inconclusive: 35.5 µM [inhibitor, single point] | – |
| CC1(C)Cc2c(c(N3CCOCC3)nc3sc(C(=O)Nc4ccc(Cl)cc4)c(N)c23)CO1 | inconclusive: 1.58 µM [inhibitor, partial curve, poor fit] | – |
| CCc1cccc(NC(=O)Nc2cccc(-c3ccc(N4CCOCC4)nn3)c2)c1 | inconclusive: 31.6 µM [inhibitor, single point] | – |
| COc1ccc(CCNC(=O)c2cc(C3CC3)nc3c2cnn3C(C)C)cc1OC | – | inactive: 7.18% |

| Structure (SMILES) | Potency | activity change, negative = inhibition |
| --- | --- | --- |
| CC(C)c1noc(-c2cccn3c(CNC(=O)c4ccc(F)c(F)c4)nnc23)n1 | active: 11.2 µM | – |
| O=C(CCn1cnnn1)N1CC(c2noc(C3CCCN3CC3CC3)n2)C1 (configuration not stated) | – | inactive: 1.48% |
| COc1ccc(-c2ccc(-c3nc(CC(C)C)no3)cn2)c2cccnc12 | active: 28.2 µM | – |
| O=C(Nc1ccc(Cl)cc1Cl)c1cnn2ncccc12 | active: 35.5 µM | – |
| Fc1ccc2[nH]c3c(NCc4ccccc4)ncnc3c2c1 | inconclusive: 25.1 µM [inhibitor, partial curve, poor fit] | – |
| O=C(Nn1cnnc1)c1ccc(Cl)cc1Cl | – | inactive: 9.85% |
| O=C(O)c1cnc(/C=C/c2cc(Cl)c3c(c2)OCO3)s1 | inconclusive: 28.2 µM [inhibitor, single point] | – |
| Cc1nn(-c2ccccc2)c2nc(C3CC3)cc(C(=O)Nc3ccc(F)cc3)c12 | inconclusive: 35.5 µM [inhibitor, partial curve, poor fit] | – |
| COC[C@@H]1CN(C(=O)c2ccc(C#N)cc2)C[C@H]1c1nc(C2CC2)no1 | – | inactive: 31.1% |
| CC(C)NC(=O)N1CCC(N2CC3CC(C2)[C@H]2CCCC(=O)N2C3)CC1 (some centres not stated) | inconclusive: 17.8 µM [inhibitor, single point] | – |
| CCc1c(C)sc2c1CCN(Cc1ccccc1)C2c1ccccc1 (configuration not stated) | inconclusive: 25.1 µM [inhibitor, partial curve, poor fit] | – |
| CCOC(=O)c1cnn(-c2ccc(C(=O)Nc3ccc(Br)cc3)cc2)c1N | – | inactive: 3.1% |
| O=C(c1cn[nH]c1)N1CCC(c2nc(CCOCC3CCOCC3)no2)C1 (configuration not stated) | – | inactive: -27.9% |
| CCOC(=O)N1CCC(NC(=O)c2cc3cc(F)ccc3[nH]2)CC1 | inconclusive: 25.1 µM [inhibitor, partial curve, poor fit] | – |
| COc1cccc(CN2CCNC(=O)C2CC(=O)NCc2ccon2)c1OC (configuration not stated) | inconclusive: 10 µM [inhibitor, partial curve, poor fit] | – |
| CCc1csc(CNC2CCC3(CCNCC3)CC2)n1 | inconclusive: 28.2 µM [inhibitor, partial curve, poor fit] | – |
| Cc1cn2c(=O)cc(COc3cccc(NC(=O)c4ccc(C(C)(C)C)cc4)c3)nc2s1 | inconclusive: 31.6 µM [inhibitor, single point] | – |
| COc1ccccc1-c1cc(-c2ccc(N3CCOCC3)cc2)c2onc(C)c2n1 | inconclusive: 28.2 µM [inhibitor, partial curve, poor fit] | – |
| O=C(NCc1ccccc1)C1CCN(c2nc(-c3ccccc3)nc3c2CCC3)CC1 | inconclusive: 39.8 µM [inhibitor, partial curve, poor fit] | – |
| CCOC(=O)C1CCN(CC(=O)Nc2cc(C)c3c(=O)oc4ccccc4c3n2)CC1 | – | inconclusive: -42.5% [inhibitor] |
| Cc1nc2nc(SCC(=O)N(C)Cc3ccccc3)nn2c(C)c1Cc1ccccc1Cl | inconclusive: 44.7 µM [inhibitor, single point] | – |
| COc1ccc(-c2nc(C)nc3c2CCN(Cc2cccn2C)CC3)cc1 | inconclusive: 20 µM [inhibitor, single point] | – |
| COc1ccc(-c2nc(C(=O)NC3CC3)n3ccccc23)cc1 | active: 31.6 µM | – |

| Structure (SMILES) | Potency | activity change, negative = inhibition |
| --- | --- | --- |
| CCCCN(C)CCNC(=O)C1CCCN(S(=O)(=O)c2cccc3nsnc23)C1 (configuration not stated) | inconclusive: 14.1 µM [inhibitor, partial curve, poor fit] | – |
| CCc1ccc(S(=O)(=O)c2cn(C)c3cc(N4CCOCC4)c(F)cc3c2=O)cc1 | inconclusive: 31.6 µM [inhibitor, single point] | – |
| COCCc1noc(-c2ccccc2OC2CN(C(=O)CC(C)C)C2)n1 | inconclusive: 28.2 µM [inhibitor, partial curve] | – |
| Cc1ccc(-c2noc([C@@H]3Cc4nc[nH]c4CN3C(=O)Nc3cccc(F)c3)n2)cc1 | inconclusive: 31.6 µM [inhibitor, single point] | – |
| N#Cc1c(F)cccc1NCCNc1cc(Cl)nc(N)n1 | inconclusive: 25.1 µM [inhibitor, single point] | – |
| O=S(=O)(Cc1ccccc1F)CC(O)c1ccccc1 (configuration not stated) | – | inactive: 13.1% |
| CCN(CC)c1cc(C)c2cc(NC(=O)c3cccc(OC)c3OC)ccc2n1 | inconclusive: 8.91 µM [inhibitor, partial curve, poor fit] | – |
| COCCNC(=O)c1cc(C2CC2)nc2c1c(C1CCCN1)nn2C (configuration not stated) | active: 79.4 µM | – |
| COc1cc2c(cc1CN1C[C@H]3CC[C@@H]1CN(C(=O)c1cnccn1)C3)CCC2 | inconclusive: 31.6 µM [inhibitor, single point] | – |
| O=C(c1ccccc1)N1CCCC2(C1)Nc1cccnc1NC2=NCc1ccccc1 (configuration not stated) | active: 28.2 µM | – |
| Cn1nccc1CN1CCC2(CC1)CC(=O)c1ccccc1O2 | active: 28.2 µM | – |
| O=C1CC(c2noc(-c3ccccc3F)n2)CN1C1CCCCC1 (configuration not stated) | – | inactive: 8.45% |
| CCN1CCN(c2ccc(NC(=O)c3ccc(OC)c(F)c3)cc2C)CC1 | – | inactive: -17.7% |
| O=C(NCCn1ccn2nc(-c3ccc(F)cc3)cc2c1=O)c1c(F)cccc1Cl | inconclusive: 22.4 µM [inhibitor, single point] | – |
| COc1ccccc1-c1[nH]nc2ncc(C(=O)NCc3ccccc3)nc12 | active: 31.6 µM | – |
| NC(=O)C(c1ccccc1)(c1ccccc1)c1ccccc1 | – | inactive: -1.8% |
| CC(c1ccc(-c2cc(N)ccn2)cc1)N1CCCCC1 (configuration not stated) | – | inactive: -9.47% |
| COc1ccc(CCN2CCC(CN(C)C(=O)NCc3ccccc3)CC2)cc1 | – | inactive: 2.05% |
| Cc1cccc(Cc2c(C)nc(N3CCN(Cc4ccccc4)CC3)[nH]c2=O)c1 | – | inactive: 13.2% |
| Cc1ccc(-c2nc(NCc3ccncc3)ncc2C(=O)O)cc1 | inconclusive: 31.6 µM [inhibitor, partial curve, poor fit] | – |
| COc1ccccc1Oc1coc2cc(O)ccc2c1=O | inconclusive: 25.1 µM [inhibitor, partial curve, poor fit] | – |
